Toxic doses and inconclusive results are not listed. Certain results were filed several times, with different values. The list is limited to them. The source may hold further records. The records of an entry differ, and nothing given here explains why; dose, time, organism, isomer or construct need not be as stated for each record. Marks such as (2×) count equal records among those shown. Numbered stars: 1 amine (or outer) side, 2 acyl side, 3 side chain; on linkers, the order of the positions; unused ones are H or OH. Bridge positions count the residues as written; N and C are the ends. Square brackets hold non-standard residues; d marks the D form. Peptide text beside a SMILES is read from it. I, II: the chains in the order shown. Actinocin(9to1) = Cc1c2oc3c(C)ccc(C(=O)[*:1])c3nc-2c(C(=O)[*:2])c(N)c1=O; aThr = C[C@H](O)[C@H](N)C(=O)O; NMeV = CN[C@H](C(=O)O)C(C)C; Sar = CNCC(=O)O

This experiment concerns P388 leukemia ip, CD2F1 mice, survival T/C. Put plainly: NCI In Vivo Anticancer Drug Screen. Data for tumor model P388 Leukemia (intraperitoneal) in CD2F1 (CDF1) mice. Conditions: endpoint: median survival time, higher = longer survival.

As for `Nc1ncn(C2OC(CO)C(O)C2O)c(=O)n1` (stereo not given), for the setting “dose: 6.0 mg/kg/injection, schedule: Q01DX009 (ip), vehicle: saline”, the T/C is on record as 92 % of control, 103 % of control, 329 % of control.

Turning to `Cc1c2oc3c(C)ccc(C(=O)N[C@@H]4C(=O)N[C@H](C(C)C)C(=O)N5CCC[C@H]5C(=O)N(C)CC(=O)N(C)[C@@H](C(C)C)C(=O)O[C@H]4C)c3nc-2c(C(=O)N[C@@H]2C(=O)N[C@H](C(C)C)C(=O)N3CCC[C@H]3C(=O)N(C)CC(=O)N(C)[C@@H](C(C)C)C(=O)O[C@H]2C)c(N)c1=O` (I: [aThr][dV]P[Sar][NMeV] / II: [aThr][dV]P[Sar][NMeV]; ester I:1-I:C, II:1-II:C; linker I:N-II:N via Actinocin(9to1)), the T/C (dose: 0.07 mg/kg/injection, schedule: Q01DX009 (ip), vehicle: water) is 94 % of control and 194 % of control (2×); the T/C (dose: 0.6 mg/kg/injection, schedule: Q01DX001 (ip), vehicle: water) was 101 % of control (2×) and 156 % of control.

Regarding `COc1cc(NS(C)(=O)=O)ccc1Nc1c2ccccc2nc2ccccc12`, the T/C (dose: 2.0 mg/kg/injection, schedule: Q04DX003 (ip), vehicle: other) is 116 % of control and 153 % of control.

On to `CC[C@]1(O)C[C@H]2CN(CCc3c([nH]c4ccccc34)[C@@](C(=O)OC)(c3cc4c(cc3OC)N(C=O)[C@H]3[C@@](O)(C(=O)OC)[C@H](OC(C)=O)[C@]5(CC)C=CCN6CC[C@]43[C@@H]65)C2)C1`, for which the T/C reads like this: (dose: 0.13 mg/kg/injection, schedule: Q04DX003 (ip), vehicle: saline) 116 % of control and 162 % of control; (dose: 0.8 mg/kg/injection, schedule: Q04DX003 (ip), vehicle: saline) 119 % of control and 182 % of control.

Consider `Nc1nc(=S)c2ncn(C3OC(CO)C(O)C3O)c2[nH]1` (stereo not given), for which the T/C (dose: 100.0 mg/kg/injection, schedule: Q01DX005 (ip), vehicle: saline with Tween-80) was 122 % of control and 162 % of control.

In the case of `COc1cccc2c1C(=O)c1c(O)c3c(c(O)c1C2=O)C[C@@](O)(C(=O)COC(=O)Cc1ccccc1)C[C@@H]3OC1CC(N)C(O)C(C)O1` (stereo not given in full), the T/C (dose: 0.5 mg/kg/injection, schedule: Q01DX009 (ip), vehicle: saline with Tween-80) is 118 % of control, 158 % of control, 174 % of control.

For `O=C(NC1CCC1)OCc1c(COC(=O)NC2CCC2)c(-c2ccc(Cl)c(Cl)c2)n2c1CCC2`, the T/C (dose: 50.0 mg/kg/injection, schedule: Q01DX009 (ip), vehicle: distilled water + Tween-80) is 101 % of control and 155 % of control.

As to `N[C@@H](Cc1ccc(N(CCCl)CCCl)cc1)C(=O)O`, the T/C (dose: 10.0 mg/kg/injection, schedule: Q01DX005 (ip), vehicle: saline) was 116 % of control and 187 % of control.

These data come from PubChem BioAssay AID330 (DTP/NCI, 2004).
